In the supplement of paper PMC4604168 (melanoma cell lines):
The list shows a part of the results. Repeats are few or missing, and single values can be far off.

Tests used:
Assay in all cases: cell count relative to DMSO control; melanoma cells; higher = more viable cells
Conditions in all cases: library dose: low library concentration; 72 h
COLO792 = system: COLO792
COLO800 = system: COLO800
COLO829 = system: COLO829
G361 = system: G361
IPC-298 = system: IPC-298
IST-MEL1 = system: IST-MEL1
LB2518-MEL = system: LB2518-MEL
LOXIMVI = system: LOXIMVI
MEL-HO = system: MEL-HO
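Also: cell number obtained by counting DAPI-stained nuclei in high-throughput microscope images with image analysis software, screen run in 1,536-well plates.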

Row | SMILES | cell count (COLO792) [%] | cell count (COLO800) [%] | cell count (COLO829) [%] | cell count (G361) [%] | cell count (IPC-298) [%] | cell count (IST-MEL1) [%] | cell count (LB2518-MEL) [%] | cell count (LOXIMVI) [%] | cell count (MEL-HO) [%]
1 | C=CCNC1=C2C[C@@H](C)C[C@H](OC)[C@H](O)[C@@H](C)/C=C(\C)[C@H](OC(N)=O)[C@@H](OC)/C=C\C=C(/C)C(=O)NC(=CC1=O)C2=O [Tanespimycin] + Cc1cc(N2CCOCC2)cc2[nH]c(-c3c(NC[C@@H](O)c4cccc(Cl)c4)cc[nH]c3=O)nc12 [BMS536924] (first compound 0.002 µM, partner dose 0.2 µM) | 101 | 51.7 | 97.7 | 90.9 | 97.4 | 94.8 | 98.7 | 97 | 106
2 | C[C@@H](Oc1cc(-c2cnn(C3CCNCC3)c2)cnc1N)c1c(Cl)ccc(F)c1Cl [Crizotinib] + O=S(=O)(c1ccccc1)N(CC(F)(F)F)c1ccc(C(O)(C(F)(F)F)C(F)(F)F)cc1 [T0901317] (first compound 0.2 µM, partner dose 1.4 µM) | 98.5 | 143 | 94.1 | 72.6 | 91.1 | 96.7 | 99.7 | 123 | 81.5
3 | CNC(=O)c1cc(Oc2ccc(NC(=O)Nc3ccc(Cl)c(C(F)(F)F)c3)cc2)ccn1 [sorafenib] + COc1cc2ncnc(Nc3ccc(Oc4ccccc4)cc3)c2cc1OC [SrcI1] (first compound 0.4 µM, partner dose 2 µM) | 115 | 79.9 | 83.8 | 86.3 | 92.4 | 105 | 123 | 113 | 85.2
4 | CNC(=O)c1cc(Oc2ccc(NC(=O)Nc3ccc(Cl)c(C(F)(F)F)c3)cc2)ccn1 [sorafenib] + COc1ccc(-c2ccc3c(N4CCOCC4)nc(N4C[C@@H](C)O[C@@H](C)C4)nc3n2)cc1CO [KU0063794] (first compound 0.4 µM, partner dose 0.02 µM) | 106 | 137 | 101 | 118 | 89.6 | 96.8 | 108 | 106 | 86.5
5 | CN1CCN(c2ccc3nc(-c4c(N)c5c(F)cccc5[nH]c4=O)[nH]c3c2)CC1 [Dovitinib] + Oc1nc(-c2ccc(C(F)(F)F)cc2)nc2c1CSCC2 [XAV939] (first compound 0.1 µM, partner dose 2 µM) | 66.9 | 133 | 112 | 75.1 | 98.7 | 98.1 | 91.8 | 106 | 96.1
6 | CNC(=O)c1cc(Oc2ccc(NC(=O)Nc3ccc(Cl)c(C(F)(F)F)c3)cc2)ccn1 [sorafenib] + CN(C)S(=O)(=O)c1ccc2c(c1)/C(=C/c1cc3c([nH]1)CCCC3)C(=O)N2 [SU6656] (first compound 0.4 µM, partner dose 0.4 µM) | 98.7 | 92.2 | 89.2 | 109 | 99.8 | 98.1 | 106 | 210 | 83.2
7 | CS(=O)(=O)CCNCc1ccc(-c2ccc3ncnc(Nc4ccc(OCc5cccc(F)c5)c(Cl)c4)c3c2)o1 [lapatinib] + COc1ccc2c(c1)CCC1C2CCC2(C)C(NCCCCCCN3C(=O)C=CC3=O)CCC12 [U73122] (first compound 0.8 µM, partner dose 0.4 µM) | 87.1 | 75.2 | 115 | 82.3 | 96.1 | 100 | 99.2 | 91.8 | 93.7
8 | CN1CCN(c2ccc3nc(-c4c(N)c5c(F)cccc5[nH]c4=O)[nH]c3c2)CC1 [Dovitinib] + O=C(Nc1cccc(Cl)c1)Nc1ncc(CCNc2ncnc3ccsc23)s1 [SNS314] (first compound 0.1 µM, partner dose 0.0008 µM) | 90.1 | 52.2 | 99.9 | 110 | 95 | 102 | 74.2 | 114 | 110
9 | C=CCNC1=C2C[C@@H](C)C[C@H](OC)[C@H](O)[C@@H](C)/C=C(\C)[C@H](OC(N)=O)[C@@H](OC)/C=C\C=C(/C)C(=O)NC(=CC1=O)C2=O [Tanespimycin] + COc1ccc(COc2ccc(Cc3cnc(N)nc3N)cc2OC)cc1 [GW2580] (first compound 0.002 µM, partner dose 1 µM) | 94.4 | 86.2 | 135 | 98.5 | 91.4 | 101 | 94 | 118 | 82
10 | CS(=O)(=O)CCNCc1ccc(-c2ccc3ncnc(Nc4ccc(OCc5cccc(F)c5)c(Cl)c4)c3c2)o1 [lapatinib] + C[C@@H]1CCN(C(=O)CC#N)C[C@@H]1N(C)c1ncnc2[nH]ccc12 [CP690550] (first compound 0.8 µM, partner dose 1 µM) | 71.8 | 85.4 | 106 | 89.9 | 93.8 | 98.3 | 104 | 91 | 95.8
11 | C[C@@H](Oc1cc(-c2cnn(C3CCNCC3)c2)cnc1N)c1c(Cl)ccc(F)c1Cl [Crizotinib] + CCN(CC)CCCCNc1ncc2cc(-c3cc(OC)cc(OC)c3)c(NC(=O)NC(C)(C)C)nc2n1 [PD173074] (first compound 0.2 µM, partner dose 0.1 µM) | 99.8 | 76.7 | 111 | 91 | 96.5 | 91 | 99.9 | 125 | 95.3
12 | CS(=O)(=O)CCNCc1ccc(-c2ccc3ncnc(Nc4ccc(OCc5cccc(F)c5)c(Cl)c4)c3c2)o1 [lapatinib] + Cc1ccc(NC(=O)c2cccc(N(C)C)c2)cc1NC(=O)c1ccc(O)cc1 [ZM336372] (first compound 0.8 µM, partner dose 2 µM) | 96.7 | 98.8 | 88.7 | 84.2 | 81.7 | 89.4 | 84.3 | 110 | 81.2
13 | CN1CCN(c2ccc3nc(-c4c(N)c5c(F)cccc5[nH]c4=O)[nH]c3c2)CC1 [Dovitinib] + Cn1cncc1[C@@](N)(c1ccc(Cl)cc1)c1ccc2c(c1)c(-c1cccc(Cl)c1)cc(=O)n2C [tipifarnib] (first compound 0.1 µM, partner dose 0.01 µM) | 90.1 | 90.1 | 83.5 | 82.2 | 87.7 | 92.8 | 76 | 92.1 | 94.3
14 | CNC(=O)c1cc(Oc2ccc(NC(=O)Nc3ccc(Cl)c(C(F)(F)F)c3)cc2)ccn1 [sorafenib] + COc1cc2c(Oc3ccc4[nH]c(C)cc4c3F)ncnc2cc1OCCCN1CCCC1 [cediranib] (first compound 0.4 µM, partner dose 0.4 µM) | 99.1 | 98.6 | 90.1 | 113 | 92.1 | 91.5 | 105 | 194 | 99.4
15 | C[C@@H](Oc1cc(-c2cnn(C3CCNCC3)c2)cnc1N)c1c(Cl)ccc(F)c1Cl [Crizotinib] + CN(NC(=O)CC(=O)NN(C)C(=S)c1ccccc1)C(=S)c1ccccc1 [STA4783] (first compound 0.2 µM, partner dose 0.006 µM) | 83.9 | 47.4 | 67.2 | 90.1 | 104 | 78.7 | 71.6 | 162 | 95.8
16 | CNC(=O)c1cc(Oc2ccc(NC(=O)Nc3ccc(Cl)c(C(F)(F)F)c3)cc2)ccn1 [sorafenib] + C=CCn1c(=O)c2cnc(Nc3ccc(N4CCN(C)CC4)cc3)nc2n1-c1cccc(C(C)(C)O)n1 [MK1775] (first compound 0.4 µM, partner dose 0.02 µM) | 111 | 116 | 92.4 | 76.9 | 105 | 98.1 | 102 | 110 | 93.3
17 | CNC(=O)c1cc(Oc2ccc(NC(=O)Nc3ccc(Cl)c(C(F)(F)F)c3)cc2)ccn1 [sorafenib] + O=C1NC(=O)/C(=C/c2ccc(-c3ccc(F)cc3O)o2)S1 [AS252424] (first compound 0.4 µM, partner dose 1 µM) | 114 | 110 | 132 | 103 | 91.3 | 99.8 | 111 | 71.7 | 92.5
18 | C=CCNC1=C2C[C@@H](C)C[C@H](OC)[C@H](O)[C@@H](C)/C=C(\C)[C@H](OC(N)=O)[C@@H](OC)/C=C\C=C(/C)C(=O)NC(=CC1=O)C2=O [Tanespimycin] + Oc1nc(-c2ccc(C(F)(F)F)cc2)nc2c1CSCC2 [XAV939] (first compound 0.002 µM, partner dose 2 µM) | 80.4 | 105 | 131 | 72.2 | 97.9 | 95.3 | 95.6 | 105 | 102
